Source: the supplement of paper PMC3334620
Whole data set: some 33,000 sequences, median “E-score (-0.5 to 0.5)” near -0.056, cut for the highest 2% near 0.38. The list shows a part of the results.

Molecular target: Stb4 (UniProt P50104)
Assay: PBM E-score (8-mer binding enrichment) (E-score (-0.5 to 0.5)); higher = stronger / more preferred TF binding; most listed sequences are background and not binding sites
Details: protein concentration: 200 nM; construct: GST-DNA-binding domain
Summary of the method: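 The E-score, a modified Wilcoxon-Mann-Whitney statistic, was computed by the Universal PBM Analysis Suite for every ungapped eight-base word pooled with its reverse complement. Scans behind it were normalised with masliner after bound GST-tagged yeast transcription factors were detected with fluorescent anti-GST. The proteins, at about 100-200 nM, had been applied to universal all-10-mer Agilent arrays made double-stranded by primer extension.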

Compared with CCCTGCTC, GGAGACCA is higher in “PBM E-score” value: -0.183 for the first, 0.0477 for the second.

First: CTCTAGGC
Second: CCGGACGG
The “PBM E-score” value of the first is lower: -0.0912 for the first, 0.311 for the second.

First: CACTGATC
Second: CGCCCTTA
The “PBM E-score” value of the first is lower: -0.183 for the first, -0.0598 for the second.

Compared with CCTGAAAC, AGGGTGAA is lower in “PBM E-score” value: 0.0689 for the first, -0.074 for the second.

First: CATATTCA
Second: CGGCATGA
The “PBM E-score” value of the first is lower: -0.211 for the first, 0.261 for the second.

Going from CTTTACCC to GCATATAA, the “PBM E-score” value falls from 0.169 to 0.0369.

First: CTCGCTCA
Second: CACATTGC
The “PBM E-score” value of the first is higher: 0.0786 for the first, -0.122 for the second.

First: ATCGGATA
Second: CTGCCTTA
The “PBM E-score” value of the first is higher: 0.467 for the first, -0.193 for the second.

First: CGTGATCC
Second: CTGGCGCC
The “PBM E-score” value of the first is higher: 0.00416 for the first, -0.169 for the second.

Compared with CACCCTAC, CGGGGAGA is higher in “PBM E-score” value: -0.111 for the first, 0.137 for the second.

Going from CCCTAAAG to CTGAGCTC, the “PBM E-score” value rises from -0.234 to -0.172.

First: ATACGTGG
Second: CGTAGAAG
The “PBM E-score” value of the first is lower: -0.226 for the first, -0.00783 for the second.

Going from GGTTTGAC to TAAATCCA, the “PBM E-score” value falls from 0.0931 to -0.168.

Compared with ATATCTGG, ACTACGAC is lower in “PBM E-score” value: 0.0398 for the first, -0.049 for the second.

Compared with CTTCATTC, CTCCGCAG is higher in “PBM E-score” value: -0.134 for the first, 0.0458 for the second.

First: TATTGCAA
Second: CGCAAAAG
The “PBM E-score” value of the first is higher: 0.101 for the first, -0.116 for the second.

Compared with CGTACCTA, CGACTCAC is higher in “PBM E-score” value: 0.0214 for the first, 0.0516 for the second.

First: CATATCCC
Second: GGAAGCAC
The “PBM E-score” value of the first is lower: 0.0584 for the first, 0.157 for the second.

First: AGGGGAAT
Second: CTAGAGAA
The “PBM E-score” value of the first is higher: 0.0637 for the first, -0.231 for the second.

Going from CTTAGAGA to AAGCAAGG, the “PBM E-score” value rises from -0.159 to -0.0669.

Going from AACCTCAG to TACCAGGA, the “PBM E-score” value rises from 0.0119 to 0.0625.

Compared with TAAAGTCA, ATGTAGCA is lower in “PBM E-score” value: 0.0429 for the first, -0.2 for the second.

Compared with ACTATATG, TTAGTGAA is lower in “PBM E-score” value: -0.134 for the first, -0.138 for the second.

Going from CAAGGCCC to AGAATCGG, the “PBM E-score” value rises from -0.0273 to 0.286.

Going from CAAAAGAC to GATGCCCA, the “PBM E-score” value rises from -0.18 to 0.168.

Going from GAGGATGC to CAGAGCAC, the “PBM E-score” value falls from -0.0384 to -0.106.

Going from GATCTGGC to GGGGGCAC, the “PBM E-score” value falls from 0.00732 to -0.0702.

Going from ATCGGTGG to ATCCGATG, the “PBM E-score” value rises from 0.0038 to 0.437.

Going from CCCCTTCC to ATTCACAA, the “PBM E-score” value falls from 0.0331 to -0.0973.

Going from ACTAAAGG to GAATGGGC, the “PBM E-score” value rises from -0.271 to 0.0973.

Going from CGCACGCG to GATAAGGC, the “PBM E-score” value rises from -0.0467 to 0.0112.

First: AAAAGGCG
Second: CCTAATCC
The “PBM E-score” value of the first is higher: -0.0778 for the first, -0.103 for the second.

First: AATAAATC
Second: GAGTTGAA
The “PBM E-score” value of the first is lower: -0.105 for the first, 0.156 for the second.

Compared with CATACGAA, CTTCCCGC is higher in “PBM E-score” value: -0.102 for the first, 0.2 for the second.

First: GTCCCCTA
Second: AGTGAACT
The “PBM E-score” value of the first is lower: -0.272 for the first, -0.0504 for the second.

Going from AGGGCCCA to ACCCATCA, the “PBM E-score” value falls from -0.181 to -0.194.

Compared with AACTGGCT, AGAGCGGG is higher in “PBM E-score” value: -0.157 for the first, -0.0101 for the second.

Compared with CGAAGGCC, CGGGGTTA is higher in “PBM E-score” value: 0.105 for the first, 0.289 for the second.

Compared with GGTTGCGA, ATAGCAAT is lower in “PBM E-score” value: 0.0364 for the first, -0.185 for the second.

First: AATGTTGC
Second: AAGTTGCG
The “PBM E-score” value of the first is higher: 0.0379 for the first, -0.0322 for the second.

Going from CAGGCACG to CCCGCTCC, the “PBM E-score” value rises from -0.0111 to 0.0537.

Going from AGATTGGC to AAGGCCGC, the “PBM E-score” value falls from -0.0359 to -0.166.

Compared with AGAGCAGG, TATCGAGA is higher in “PBM E-score” value: -0.158 for the first, -0.0745 for the second.
